Laboratory results from paper PMC9911399, “Two distinct binding modes provide the RNA-binding protein RbFox with extraordinary sequence specificity”.
Numbering of substitutions follows the chain as printed; changes in the protein carry UniProt numbers. Some of the results follow.

T1: RBFOX1 RRM RbFoxmut (Fox-RRM*) (Homo sapiens, UniProt Q9NWB1 109-208, R118D;E147R;N151S;E152T)
T1 sequence: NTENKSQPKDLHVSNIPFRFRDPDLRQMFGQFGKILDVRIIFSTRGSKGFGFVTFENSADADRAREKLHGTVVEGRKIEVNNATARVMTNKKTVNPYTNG

B1: UGUCUCU (DNA:RNA)
RNA: GGGAGACCGGAAUUCAGAUUGUCCUGUCUCUUUAAAUCCCGUCGUAGCCACCA
DNA 1: CAATCTGAATTCCGGTCTCCC
DNA 2: TGGTGGCTACGACGGGATT
B2: UCCUGUC (DNA:RNA)
RNA: B1 RNA with G26C, U27C, C28U, U29G, C30U, U31C
DNA 1: CAATCTGAATTCCGGTCTCCC
DNA 2: TGGTGGCTACGACGGGATT
B3: UCAAGGU (DNA:RNA)
RNA: B1 RNA with G26C, U27A, C28A, U29G, C30G
DNA 1: CAATCTGAATTCCGGTCTCCC
DNA 2: TGGTGGCTACGACGGGATT
B4: CACCCGG (DNA:RNA)
RNA: B1 RNA with U25C, G26A, U27C, U29C, C30G, U31G
DNA 1: CAATCTGAATTCCGGTCTCCC
DNA 2: TGGTGGCTACGACGGGATT
B5: CUCAUUA (DNA:RNA)
RNA: B1 RNA with U25C, G26U, U27C, C28A, C30U, U31A
DNA 1: CAATCTGAATTCCGGTCTCCC
DNA 2: TGGTGGCTACGACGGGATT
B6: GAUUACC (DNA:RNA)
RNA: B1 RNA with U25G, G26A, C28U, U29A, U31C
DNA 1: CAATCTGAATTCCGGTCTCCC
DNA 2: TGGTGGCTACGACGGGATT
B7: AAGUUAG (DNA:RNA)
RNA: B1 RNA with U25A, G26A, U27G, C28U, C30A, U31G
DNA 1: CAATCTGAATTCCGGTCTCCC
DNA 2: TGGTGGCTACGACGGGATT
B8: GGUAGGA (DNA:RNA)
RNA: B1 RNA with U25G, C28A, U29G, C30G, U31A
DNA 1: CAATCTGAATTCCGGTCTCCC
DNA 2: TGGTGGCTACGACGGGATT
B9: AUCAUCA (DNA:RNA)
RNA: B1 RNA with U25A, G26U, U27C, C28A, U31A
DNA 1: CAATCTGAATTCCGGTCTCCC
DNA 2: TGGTGGCTACGACGGGATT
B10: AUAAUAC (DNA:RNA)
RNA: B1 RNA with U25A, G26U, U27A, C28A, C30A, U31C
DNA 1: CAATCTGAATTCCGGTCTCCC
DNA 2: TGGTGGCTACGACGGGATT
B11: CCACAUA (DNA:RNA)
RNA: B1 RNA with U25C, G26C, U27A, U29A, C30U, U31A
DNA 1: CAATCTGAATTCCGGTCTCCC
DNA 2: TGGTGGCTACGACGGGATT
B12: GGCCGGA (DNA:RNA)
RNA: B1 RNA with U25G, U27C, U29G, C30G, U31A
DNA 1: CAATCTGAATTCCGGTCTCCC
DNA 2: TGGTGGCTACGACGGGATT
B13: CGCAGUG (DNA:RNA)
RNA: B1 RNA with U25C, U27C, C28A, U29G, C30U, U31G
DNA 1: CAATCTGAATTCCGGTCTCCC
DNA 2: TGGTGGCTACGACGGGATT
B14: CCCGCCG (DNA:RNA)
RNA: B1 RNA with U25C, G26C, U27C, C28G, U29C, U31G
DNA 1: CAATCTGAATTCCGGTCTCCC
DNA 2: TGGTGGCTACGACGGGATT
B15: AGUCUAC (DNA:RNA)
RNA: B1 RNA with U25A, C30A, U31C
DNA 1: CAATCTGAATTCCGGTCTCCC
DNA 2: TGGTGGCTACGACGGGATT
B16: CCUACGC (DNA:RNA)
RNA: B1 RNA with U25C, G26C, C28A, U29C, C30G, U31C
DNA 1: CAATCTGAATTCCGGTCTCCC
DNA 2: TGGTGGCTACGACGGGATT
B17: AGAACCA (DNA:RNA)
RNA: B1 RNA with U25A, U27A, C28A, U29C, U31A
DNA 1: CAATCTGAATTCCGGTCTCCC
DNA 2: TGGTGGCTACGACGGGATT
B18: AUAUGUA (DNA:RNA)
RNA: GGGAGACCGGAAUUCAGAUUGUCCAUAUGUAUUAAAUCCCGUCGUAGCCACCA
DNA 1: CAATCTGAATTCCGGTCTCCC
DNA 2: TGGTGGCTACGACGGGATT
B19: AUUCUAU (DNA:RNA)
RNA: B1 RNA with U25A, G26U, C30A
DNA 1: CAATCTGAATTCCGGTCTCCC
DNA 2: TGGTGGCTACGACGGGATT
B20: CGGGCAA (DNA:RNA)
RNA: B18 RNA with A25C, U26G, A27G, U28G, G29C, U30A
DNA 1: CAATCTGAATTCCGGTCTCCC
DNA 2: TGGTGGCTACGACGGGATT
B21: CUUAUUU (DNA:RNA)
RNA: B1 RNA with U25C, G26U, C28A, C30U
DNA 1: CAATCTGAATTCCGGTCTCCC
DNA 2: TGGTGGCTACGACGGGATT
B22: GUCGACG (DNA:RNA)
RNA: B18 RNA with A25G, A27C, U28G, G29A, U30C, A31G
DNA 1: CAATCTGAATTCCGGTCTCCC
DNA 2: TGGTGGCTACGACGGGATT
B23: UCCACCA (DNA:RNA)
RNA: B1 RNA with G26C, U27C, C28A, U29C, U31A
DNA 1: CAATCTGAATTCCGGTCTCCC
DNA 2: TGGTGGCTACGACGGGATT
B24: UGGAUCU (DNA:RNA)
RNA: B1 RNA with U27G, C28A
DNA 1: CAATCTGAATTCCGGTCTCCC
DNA 2: TGGTGGCTACGACGGGATT
B25: UCGGUGU (DNA:RNA)
RNA: B1 RNA with G26C, U27G, C28G, C30G
DNA 1: CAATCTGAATTCCGGTCTCCC
DNA 2: TGGTGGCTACGACGGGATT
B26: GGAUGCC (DNA:RNA)
RNA: B18 RNA with A25G, U26G, U30C, A31C
DNA 1: CAATCTGAATTCCGGTCTCCC
DNA 2: TGGTGGCTACGACGGGATT
B27: GUAAGAU (DNA:RNA)
RNA: B18 RNA with A25G, U28A, U30A, A31U
DNA 1: CAATCTGAATTCCGGTCTCCC
DNA 2: TGGTGGCTACGACGGGATT
B28: GAUGGCA (DNA:RNA)
RNA: B18 RNA with A25G, U26A, A27U, U28G, U30C
DNA 1: CAATCTGAATTCCGGTCTCCC
DNA 2: TGGTGGCTACGACGGGATT
B29: AUGGCGA (DNA:RNA)
RNA: B18 RNA with A27G, U28G, G29C, U30G
DNA 1: CAATCTGAATTCCGGTCTCCC
DNA 2: TGGTGGCTACGACGGGATT
B30: UGGCUGG (DNA:RNA)
RNA: B1 RNA with U27G, C30G, U31G
DNA 1: CAATCTGAATTCCGGTCTCCC
DNA 2: TGGTGGCTACGACGGGATT
B31: UGAGACG (DNA:RNA)
RNA: B1 RNA with U27A, C28G, U29A, U31G
DNA 1: CAATCTGAATTCCGGTCTCCC
DNA 2: TGGTGGCTACGACGGGATT

Target: T1, RBFOX1 RRM RbFoxmut (Fox-RRM*)
Test: EMSA; HiTS-Eq, 1 nM pool, 10 min; buffer printed only for the single-RNA assays: 10 mM Tris pH 7.5, 150 mM NaCl, 3.4 mM EDTA, 0.001% NP-40, 30 C
Conditions: tags: His6 N-terminal (pET28a); label: 5' 32P
Method in brief: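 A pool of RNA with 7 randomized nucleotides, 5′-radiolabelled and with DNA-annealed flanks, was equilibrated at 1 nM for 10 min in 50 µL with purified RbFox RRM, wild type or mutant, across increasing protein concentrations. Free RNA was separated by 8% native PAGE, excised, reverse-transcribed, barcoded by PCR and sequenced. Relative association constants were obtained from read-count changes of each RNA species versus the control reaction and normalised to the cognate motif.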

| Binder | binding signal |
| --- | --- |
| B1 | 0.119 KA relative to UGCAUGU |
| B2 | 0.164 KA relative to UGCAUGU |
| B3 | 0.107 KA relative to UGCAUGU |
| B4 | 0.0792 KA relative to UGCAUGU |
| B5 | 0.119 KA relative to UGCAUGU |
| B6 | 0.0474 KA relative to UGCAUGU |
| B7 | 0.135 KA relative to UGCAUGU |
| B8 | 0.0596 KA relative to UGCAUGU |
| B9 | 0.0942 KA relative to UGCAUGU |
| B10 | 0.0898 KA relative to UGCAUGU |
| B11 | 0.122 KA relative to UGCAUGU |
| B12 | 0.0626 KA relative to UGCAUGU |
| B13 | 0.155 KA relative to UGCAUGU |
| B14 | 0.0882 KA relative to UGCAUGU |
| B15 | 0.0848 KA relative to UGCAUGU |
| B16 | 0.0863 KA relative to UGCAUGU |

| Binder | binding signal |
| --- | --- |
| B17 | 0.0847 KA relative to UGCAUGU |
| B18 | 0.261 KA relative to UGCAUGU |
| B19 | 0.112 KA relative to UGCAUGU |
| B20 | 0.0738 KA relative to UGCAUGU |
| B21 | 0.112 KA relative to UGCAUGU |
| B22 | 0.0717 KA relative to UGCAUGU |
| B23 | 0.0927 KA relative to UGCAUGU |
| B24 | 0.259 KA relative to UGCAUGU |
| B25 | 0.131 KA relative to UGCAUGU |
| B26 | 0.168 KA relative to UGCAUGU |
| B27 | 0.0833 KA relative to UGCAUGU |
| B28 | 0.123 KA relative to UGCAUGU |
| B29 | 0.107 KA relative to UGCAUGU |
| B30 | 0.217 KA relative to UGCAUGU |
| B31 | 0.118 KA relative to UGCAUGU |
